Results from PubChem BioAssay AID298 (DTP/NCI, 2004).
“And” between values parts separate entries of the source, which are not always exact repeats. Equal values may be shown once. Results filed as inconclusive are left out.

System: MX-1 breast xenograft, intrarenal, nude mice, tumor weight
Assay: NCI In Vivo Anticancer Drug Screen. Data for tumor model Human Mammary Carcinoma MX-1 Xenograft (intrarenal inoculation) in NU/NU BALB/C (nude) mice
Conditions: endpoint: mean tumor weight change, schedule: Q04DX003 (ip), vehicle: Klucel (hydroxypropylcellulose) (HPC), higher = larger tumour
Protocol: The antitumor activity of compounds was measured in mice bearing transplantable tumors. Survival or tumor size were measured and the results are expressed as the measurement made in the treated group (T) divided by the measurement made in the vehicle treated control group (C). The tumor model used in this assay is Human Mammary Carcinoma MX-1 Xenograft (intrarenal inoculation) in NU/NU BALB/C (nude) mice

COc1cc2c(c(OC)c1OC)-c1ccc(OC)c(=O)cc1[C@@H](N)CC2
T/C (dose: 30.0 mg/kg/injection): 27 % of control

COc1c(O)cc2c(c1OC)-c1ccc(SC)c(=O)cc1C(NC(C)=O)CC2 (centres undefined)
T/C (dose: 1.25 mg/kg/injection): 61 % of control
T/C (dose: 1.56 mg/kg/injection): 41 % of control
T/C (dose: 2.5 mg/kg/injection): 31 % of control and 46 % of control
T/C (dose: 3.12 mg/kg/injection): 33 % of control
T/C (dose: 6.25 mg/kg/injection): 7 % of control and 20 % of control
T/C (dose: 10.0 mg/kg/injection): 16 % of control and 24 % of control (2×)
T/C (dose: 12.5 mg/kg/injection): 7 % of control

CCOC(=O)NC1CCc2cc(OC)c(OC)c(OC)c2-c2ccc(OC)c(=O)cc21 (centres undefined)
T/C (dose: 3.75 mg/kg/injection): 56 % of control

COc1cc2c(c(OC)c1OC)-c1ccc(SC)c(=O)cc1[C@@H](NC(C)=O)CC2
T/C (dose: 0.5 mg/kg/injection): 52 % of control
T/C (dose: 0.72 mg/kg/injection): 57 % of control
T/C (dose: 1.0 mg/kg/injection): 28 % of control
T/C (dose: 1.2 mg/kg/injection): 47 % of control and 71 % of control
T/C (dose: 2.0 mg/kg/injection): 19 % of control and 21 % of control and 27 % of control
